According to patent publication EP3858439A1 (priority 2020, dated 2021):
Counter-ions that a name gives are not always drawn. Like-named read-outs stand apart in the source and are kept apart here.

Biological target: human α2δ-1 subunit of Cav2.2 calcium channel (Homo sapiens, UniProt P54289)
Experiment: Binding assay to human α2δ-1 subunit of Cav2.2 calcium channel ([3H]-Gabapentin displacement)
Protocol: Binding assay to human α2δ-1 subunit of Cav2.2 calcium channel.
Human α2δ-1 enriched membranes (2.5 µg) were incubated with 15 nM of radiolabeled [3H]-Gabapentin in assay buffer containing Hepes-KOH 10 mM, pH 7.4.
NSB (non specific binding) was measured by adding 10 µM pregabalin. The binding of the test compound was measured at either one concentration (% inhibition at 1 or 10 µM) or five different concentrations to determine affinity values (Ki). After 60 min incubation at 27 °C, binding reaction was terminated by filtering through Multiscreen GF/C (Millipore) presoaked in 0.5 % polyethyleneimine in Vacuum Manifold Station, followed by 3 washes with ice-cold filtration buffer containing 50 mM Tris-HCI, pH 7.4.
Filter plates were dried at 60 °C for 1 h and 30µl of scintillation cocktail were added to each well before radioactivity reading.
Readings were performed in a Trilux 1450 Microbeta radioactive counter (Perkin Elmer).

[1] = read-out: Binding α2δ-1, Table 2, human α2δ-1 enriched membranes, 15 nM [3H]-Gabapentin, 60 min at 27 °C

human α2δ-1 subunit of Cav2.2 calcium channel, sequence (P54289 25-1103): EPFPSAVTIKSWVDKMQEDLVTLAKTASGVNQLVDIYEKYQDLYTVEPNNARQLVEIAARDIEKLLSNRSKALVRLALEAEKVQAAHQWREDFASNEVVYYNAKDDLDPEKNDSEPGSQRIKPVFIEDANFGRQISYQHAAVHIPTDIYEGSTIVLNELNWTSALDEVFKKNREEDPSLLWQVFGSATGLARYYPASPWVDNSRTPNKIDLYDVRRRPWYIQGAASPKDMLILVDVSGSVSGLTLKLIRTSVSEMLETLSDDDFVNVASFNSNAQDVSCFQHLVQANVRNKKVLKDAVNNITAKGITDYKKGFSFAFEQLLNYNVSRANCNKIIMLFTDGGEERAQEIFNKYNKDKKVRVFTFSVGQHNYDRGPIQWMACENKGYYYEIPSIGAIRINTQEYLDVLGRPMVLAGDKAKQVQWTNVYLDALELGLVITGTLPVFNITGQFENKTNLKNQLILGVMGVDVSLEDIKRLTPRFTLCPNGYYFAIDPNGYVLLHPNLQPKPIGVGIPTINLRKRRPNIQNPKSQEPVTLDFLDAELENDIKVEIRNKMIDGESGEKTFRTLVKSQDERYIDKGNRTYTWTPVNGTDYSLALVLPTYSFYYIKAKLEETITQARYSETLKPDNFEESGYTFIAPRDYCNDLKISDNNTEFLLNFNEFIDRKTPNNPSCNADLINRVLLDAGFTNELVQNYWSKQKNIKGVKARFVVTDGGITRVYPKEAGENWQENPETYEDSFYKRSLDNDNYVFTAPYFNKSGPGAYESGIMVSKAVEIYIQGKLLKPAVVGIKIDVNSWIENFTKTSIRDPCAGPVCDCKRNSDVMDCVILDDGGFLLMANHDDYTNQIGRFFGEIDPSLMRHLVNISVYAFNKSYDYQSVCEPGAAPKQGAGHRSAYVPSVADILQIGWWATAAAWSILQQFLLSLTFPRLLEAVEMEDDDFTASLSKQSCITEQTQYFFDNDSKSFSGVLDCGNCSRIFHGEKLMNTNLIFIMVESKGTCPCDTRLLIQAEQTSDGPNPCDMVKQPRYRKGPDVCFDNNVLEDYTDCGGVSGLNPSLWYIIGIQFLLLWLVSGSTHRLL

Row | SMILES | Ki | Ki [1]
1 | CNCC(Cc1ccccc1)C(=O)N1CCC(c2cccc(OC)c2)(N(C)C)CC1 (stereo not shown) [Example 41, 2-benzyl-1-(4-(dimethylamino)-4-(3-methoxyphenyl)piperidin-1-yl)-3-(methylamino)propan-1-one dihydrochloride] | 0.5 to 5 µM | 0.5 to 5 µM
2 | CNCC(Cc1ccccc1)C(=O)N1CCC(NC)(c2cccc(O)c2)CC1 (stereo not shown) [Example 44, 2-benzyl-1-(4-(3-hydroxyphenyl)-4-(methylamino)piperidin-1-yl)-3-(methylamino)propan-1-one dihydrochloride] | 0.5 to 5 µM | 0.5 to 5 µM
3 | C[C@H](N)[C@H](Cc1ccccc1)C(=O)N1CCC(c2ccccc2)(N(C)C)CC1 [Example 48, (2S,3S)-3-amino-2-benzyl-1-(4-(dimethylamino)-4-phenylpiperidin-1-yl)butan-1-one dihydrochloride] | > 5 µM | > 5 µM
4 | C[C@@H](N)[C@@H](Cc1ccccc1)C(=O)N1CCC(c2ccccc2)(N(C)C)CC1 [Example 49, (2R,3R)-3-amino-2-benzyl-1-(4-(dimethylamino)-4-phenylpiperidin-1-yl)butan-1-one dihydrochloride] | > 5 µM | > 5 µM
5 | CNCC(Cc1cccc(F)c1)C(=O)N1CCC(c2ccccc2)(N(C)C)CC1 (stereo not shown) [Example 52, 1-(4-(dimethylamino)-4-phenylpiperidin-1-yl)-2-(3-fluorobenzyl)-3-(methylamino) propan-1-one] | 0.5 to 5 µM | 0.5 to 5 µM
6 | CNCC(Cc1ccccc1C#N)C(=O)N1CCC(c2ccccc2)(N(C)C)CC1 (stereo not shown) [Example 55, 2-(3-(4-(dimethylamino)-4-phenylpiperidin-1-yl)-2-((methylamino)methyl)-3-oxopropyl)benzonitrile dihydrochloride] | 0.5 to 5 µM | 0.5 to 5 µM
7 | CNCC(Cc1ccccc1F)C(=O)N1CCC(c2ccccc2)(N(C)C)CC1 (stereo not shown) [Example 57, 1-(4-(dimethylamino)-4-phenylpiperidin-1-yl)-2-(2-fluorobenzyl)-3-(methylamino)propan-1-one dihydrochloride] | 0.5 to 5 µM | 0.5 to 5 µM
8 | CC[C@@H](c1ccccc1)[C@@H](CNC)C(=O)N1CCC(NC)(c2ccc(F)cc2)CC1 [Example 65, (2S,3R)-1-(4-(4-fluorophenyl)-4-(methylamino)piperidin-1-yl)-2-((methylamino)methyl)-3-phenylpentan-1-one] | < 0.5 µM | < 0.5 µM
9 | CC[C@@H](c1cccc(Cl)c1)[C@@H](CN)C(=O)N1CCC(c2ccccc2)(N(C)C)CC1 [Example 66, (2S,3R)-2-(aminomethyl)-3-(3-chlorophenyl)-1-(4-(dimethylamino)-4-phenylpiperidin-1-yl)pentan-1-one] | < 0.5 µM | < 0.5 µM
10 | CC[C@@H](c1cccc(Cl)c1)[C@@H](CNC)C(=O)N1CCC(c2ccccc2)(N(C)C)CC1 [Example 67, (2S,3R)-3-(3-chlorophenyl)-1-(4-(dimethylamino)-4-phenylpiperidin-1-yl)-2-((methylamino)methyl)pentan-1-one] | < 0.5 µM | < 0.5 µM
11 | CC[C@@H](c1cccc(Cl)c1)[C@@H](CNC)C(=O)N1CCC(NC)(c2ccc(F)cc2)CC1 [Example 69, (2S,3R)-3-(3-chlorophenyl)-1-(4-(4-fluorophenyl)-4-(methylamino)piperidin-1-yl)-2-((methylamino)methyl)pentan-1-one] | < 0.5 µM | < 0.5 µM
12 | CNCC(Cc1ccccc1)C(=O)N1CCC(c2ccccc2)(N(C)C)CC1 (stereo not shown) [Example 70, 2-benzyl-1-(4-(dimethylamino)-4-phenylpiperidin-1-yl)-3-(methylamino)propan-1-one] | 0.5 to 5 µM | 0.5 to 5 µM
13 | Cc1ccccc1CC(CN)C(=O)N1CCC(c2ccccc2)(N(C)C)CC1 (stereo not shown) [Example 75, 3-Amino-1-(4-(dimethylamino)-4-phenylpiperidin-1-yl)-2-(2-methylbenzyl)propan-1-one dihydrochloride] | 0.5 to 5 µM | 0.5 to 5 µM
14 | CN(C)C1(c2ccccc2)CCN(C(=O)C(CNCc2ccccc2)Cc2ccccc2)CC1 (stereo not shown) [Example 76, 2-Benzyl-3-(benzylamino)-1-(4-(dimethylamino)-4-phenylpiperidin-1-yl)propan-1-one dihydrochloride] | 0.5 to 5 µM | 0.5 to 5 µM
15 | CNC[C@H](Cc1ccccc1)C(=O)N1CCC(c2ccccc2)(N(C)C)CC1 [Example 79, (S)-2-Benzyl-1-(4-(dimethylamino)-4-phenylpiperidin-1-yl)-3-(methylamino)propan-1-one dihydrochloride] | 0.5 to 5 µM | 0.5 to 5 µM
16 | CN(C)C1(c2ccccc2)CCN(C(=O)[C@H](CN)[C@H]2CCc3ccccc32)CC1 [Example 82, (S)-3-amino-2-((R)-2,3-dihydro-1H-inden-1-yl)-1-(4-(dimethylamino)-4-phenylpiperidin-1-yl)propan-1-one] | 0.5 to 5 µM | 
17 | CNC[C@@H](C(=O)N1CCC(c2ccccc2)(N(C)C)CC1)[C@H](C)c1ccccc1 [Example 85, (2S,3S)-1-(4-(Dimethylamino)-4-phenylpiperidin-1-yl)-2-((methylamino)methyl)-3-phenylbutan-1-one] | > 5 µM | > 5 µM
18 | CNC[C@H](C(=O)N1CCC(c2ccccc2)(N(C)C)CC1)[C@@H](C)c1ccccc1 [Example 86, (2R,3R)-1-(4-(dimethylamino)-4-phenylpiperidin-1-yl)-2-((methylamino)methyl)-3-phenylbutan-1-one] | < 0.5 µM | < 0.5 µM
19 | CNC[C@H](C(=O)N1CCC(c2ccccc2)(N(C)C)CC1)[C@H](C)c1ccccc1 [Example 87, (2R,3S)-1-(4-(dimethylamino)-4-phenylpiperidin-1-yl)-2-((methylamino)methyl)-3-phenylbutan-1-one] | > 5 µM | > 5 µM
